# Results taken from PubChem BioAssay AID463173 (ICCB-Longwood Screening Facility, Harvard Medical School, 2010).
# Out of some 52,000 compounds screened, about 4,300 (8.3%) were called active. Rule as the data show it: active = survival mostly below about 52% (no sharp cut-off); inactive = mostly above about 56%. Some of the results follow.
# Tested on: DeltatarO mutant
# Experiment: S. aureus survival, RN4220 and DeltatarO strains – OD600, teichoic acid synthesis inhibitors, primary screen (AID 463173)
# Details: S. aureus RN4220 wild type/DeltatarO growth, OD600, 18 h, stronger effect = lower value, screened at 18.75 µg/mL (by protocol)
row,Compound,survival
1,CCOc1ccccc1CNC(=O)CCCn1nc(C)c2sc3ccccc3c2c1=O,inactive: 85%
2,COc1cc(NC(=O)Cn2nc(C(F)(F)F)c3c2CCCC3)cc(OC)c1OC,inactive: 83%
3,O=C(CSc1nnnn1Cc1ccccc1)Nc1ccccc1,inactive: 89%
4,COc1ccc(N2CCN(c3oc(-c4ccccc4C)nc3S(=O)(=O)c3ccccc3)CC2)cc1,inactive: 116%
5,Cc1cccc(OCC(=O)Nc2c(C(=O)N3CCN(c4ccccc4)CC3)oc3ccccc23)c1,inactive: 77%
6,CCCCN(CCCC)S(=O)(=O)c1ccc(C(=O)Nc2sc3c(c2C(N)=O)CCN(CC)C3)cc1,inactive: 77%
7,COc1cc(NC(=O)Cn2nc(Cc3cccnc3)c3ccccc3c2=O)cc(OC)c1OC,inactive: 71%
8,CCc1nc2ccccc2n1CCCCOc1ccc(Cl)cc1,active: -3%
9,CC(C)n1nnnc1SCC(=O)OC1CCCCC1,inactive: 75%
10,CCOC(=O)c1c(C)[nH]c(CCC(=O)Nc2ccccc2OCC)c1C,inactive: 78%
11,COc1ccc2oc(=O)cc(CN3CCN(c4ccccc4OC)CC3)c2c1,inactive: 77%
12,COCCCNC(=O)CSc1nc(-c2ccc(OC)cc2)[nH]c1-c1ccc(OC)cc1,inactive: 86%
13,CN(CC(=O)Nc1ccc2c(c1)OCO2)Cc1ccccc1,inactive: 53%
14,CCC(=O)N1c2ccccc2CC1C(=O)NCCN1CCN(c2cccc(Cl)c2)CC1 (centres undefined),inactive: 87%
15,CC(=O)N1CCCc2cc(S(=O)(=O)N3CCC(C(=O)NCc4ccccc4Cl)CC3)ccc21,inactive: 112%
16,O=C(NCc1ccccc1Cl)c1ccc2nc(Cc3ccccc3)oc2c1,inactive: 60%
17,COc1ccc(CNC(=O)c2ccc(CS(=O)(=O)c3ccc(OC)cc3)o2)cc1,inactive: 94%
18,Cc1nn(CCC(=O)N2CCN(c3ccccc3F)CC2)c(C)c1S(=O)(=O)N1CCCC1,inactive: 109%
19,COc1ccc(NC(=O)c2cc3ccc(O)cc3o/c2=N\O)cc1,inactive: 97%
20,CCC1CN(C(=O)N2CCC(C(=O)NCCCc3ccccc3)CC2)c2ccccc2O1 (centres undefined),inactive: 69%

row,Compound,survival
1,CCN1CCN(c2cc(C)c3cc(NC(=O)c4cc(Br)ccc4Cl)ccc3n2)CC1,active: 32%
2,CCCC12CN3CC(C)(CN(C1)C3c1cn(CC)c3ccccc13)C2=O (centres undefined),inactive: 83%
3,Cc1ccc(S(=O)(=O)N(CC(=O)O)CC(=O)O)cc1,inactive: 72%
4,Cc1cc(C)cc(NS(=O)(=O)N(C)C)c1,inactive: 75%
5,CCN(CCCNC(=O)CSc1cc(=O)n(C)c2cc(Cl)ccc12)c1ccccc1,inactive: 59%
6,Cc1ccc(NC(=O)CSc2ncc3c(n2)-c2ccccc2N(C)S3(=O)=O)c(Cl)c1,inactive: 63%
7,COc1ccc(CN(C)c2ccc(-c3nc(C)no3)cc2[N+](=O)[O-])cc1,inactive: 75%
8,Cc1cc(=O)n2nc(N3CCC(C(=O)NCc4ccccc4F)CC3)sc2n1,inactive: 108%
9,CN1CCN(CCNC(=O)c2cnn(-c3cccc(Cl)c3)c2C2CCN(C(=O)OC(C)(C)C)CC2)CC1,inactive: 71%
10,CCc1ccc(CNC(=O)Cn2nc(C)c3c(C)n(-c4ccc(C)cc4)nc3c2=O)cc1,inactive: 79%
11,CCC(CC)C(=O)Nc1cccc(-c2nc3ncccn3c2C)c1,inactive: 77%
12,CCN(CC)C(=O)c1sc2c(c1C)c(=O)n(-c1ccc(OC)cc1OC)c(=O)n2Cc1cc(C)ccc1C,inactive: 87%
13,COc1cccc(-c2nn(C)c3sc(C(=O)NCc4ccc(C)cc4)cc23)c1,inactive: 67%
14,CCOC(=O)c1cc(S(=O)(=O)NCc2ccc(F)cc2)[nH]n1,inactive: 134%
15,O=S(=O)(c1ccccc1)N1CCCC(c2nc(-c3cccs3)no2)C1 (centres undefined),inactive: 67%
16,Cc1ccc(-c2nc(C)c(CCNC(=O)C(=O)Nc3ccc(C)c(Cl)c3)s2)cc1,inactive: 74%
17,CC(=O)Nc1ccccc1OCc1cc(=O)n2c(C)csc2n1,inactive: 102%
18,CN(C)C(=O)CSc1nnc2n1C(C)(C)Cc1ccccc1-2,inactive: 80%
19,O=C(O)C1=C(C(=O)Nc2ccc(F)c(Cl)c2)CCCC1,inactive: 78%
20,N#Cc1c(C(F)(F)F)cc(-c2ccco2)nc1SCc1ccncc1,inactive: 114%

row,Compound,survival
1,O=S(=O)(NCc1ccco1)c1cccc(S(=O)(=O)N2CCCCC2)c1,inactive: 90%
2,Cc1cc2c(C)cc(=O)oc2c2c1NCCC2,inactive: 96%
3,COc1cccc(-c2n[nH]c3c2C(c2cccc(O)c2)N(C)C3=O)c1 (centres undefined),inactive: 47%
4,CCS(=O)(=O)N1CC(=O)N(c2cccc(C)c2C)C(C)(C(=O)NC2CCCCCC2)C1 (centres undefined),inactive: 94%
5,COc1ccc(CNC(=O)c2cnn(-c3ccc(OC)cc3)c2C2CCN(C(=O)OC(C)(C)C)CC2)cc1,inactive: 74%
6,COCCCNc1ncnc2ccc(Br)cc12,inactive: 83%
7,CN1CCN(C(=O)c2ccc(N(C)S(C)(=O)=O)cc2)CC1,inactive: 107%
8,Cc1nc(SCC(=O)Nc2ccccc2Cl)cc(-c2ccccc2)n1,active: 56%
9,Cc1c2cnn(-c3ccccc3)c(=O)c2c(C)n1CC(=O)N1CCN(c2cccc(Cl)c2)CC1,inactive: 91%
10,NC(CC(=O)OC1CCCCC1)C(=O)OC1CCCCC1 (centres undefined),inactive: 89%
11,CCN(CC)c1nn2c(=O)c(C(=O)NCc3cccc(OC)c3OC)cnc2s1,inactive: 83%
12,COc1cccc(NC(=O)CSc2cc(C)[nH]c(=O)n2)c1,inactive: 83%
13,COCCCNC(=O)c1sc2nc(C)c(C(=O)Nc3ccc(Cl)cc3)c(-c3ccc(Br)cc3)c2c1N,inactive: 56%
14,CC1N=C2c3ccccc3N=C(SCC(=O)NCc3ccc(Cl)cc3)N2C1=O (centres undefined),inactive: 69%
15,Cc1cccc(NCN2C(=O)S/C(=C/c3ccc(N(C)C)cc3)C2=O)c1,inactive: 73%
16,Cc1ccc2onc(CNC(=O)N(C)Cc3ccccc3)c2c1,inactive: 73%
17,CCN(CC)CCNC(=O)c1sc2nc(C)cc(C)c2c1-n1cccc1,inactive: 86%
18,COc1ccc(-n2c(Cc3ccccc3)nnc2SCc2nc(-c3ccccc3C)no2)cc1,inactive: 64%
19,CCc1ccccc1NC(=O)Cn1c(C(=O)OC)cc2oc(C)cc21,inactive: 86%
